According to PubChem BioAssay AID1671193 (National Center for Advancing Translational Sciences (NCATS), 2021):
Values joined by “and” are separate entries in the source; they are usually repeats but may differ in a detail not shown here. Equal entries are not always repeated. The campaign covered roughly 150,000 compounds. About 180 (0.12%) were called active. The shares of active, inactive and inconclusive entries below differ from those in the screen. Calls come from the whole dose curve; as a rule, active = well fitted cell-killing curve with a large enough effect; inconclusive = small, poorly fitted or top-dose-only effect, or effect the other way; inactive = flat fitted curve, though single readings scatter. Potencies beside an inconclusive call are fits to weak or partial responses and may not hold up.

test: GF-AFC viability counterscreen for inhibitors of alpha-synuclein gene (SNCA) expression; conditions: HEK-293-SNCA-luc viability, GF-AFC fluorescence, 24 h; activity change, negative = cytotoxicity: at 57.1 µM (top of the series) unless noted; note: nearly all actives have a fitted effect of over 30% in size;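 for activity change, negative = cytotoxicity: 0% = DMSO-treated cells and -100% = medium-only wells without cells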
How it was run: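 Cytotoxicity counterscreen: after 24 h compound treatment of genome-edited SNCA-luciferase HEK-293 cells, live-cell protease substrate GF-AFC read by fluorescence after 30 min; activity scaled between DMSO (0%) and medium-only (-100%), curves Hill-fitted.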
Potency is the fitted concentration of half-maximal effect; tags give direction and shape of the fitted curve.

Compound	Potency	activity change, negative = cytotoxicity
Cc1ccc(-c2cc(N3CCCN(C(=O)Cc4ccccc4)CC3)n[nH]2)cc1C	inconclusive: 39.8 µM [cytotoxic, single point]	
O=C(NC1CCCN(c2ccnc3ccnn23)C1)c1ccc(Cl)cc1 (configuration not stated)		inactive: -28%
CCCN(CCC)C(=O)c1c[nH]c2ccc(S(=O)(=O)N(C)c3ccc(OCC)cc3)cc2c1=O	inconclusive: 28.2 µM [cytotoxic, partial curve, poor fit]	
COc1cccc(NC(=O)c2ccnc(-c3nnc4ccc(Nc5ccccc5)nn34)c2)c1	inconclusive: 25.1 µM [cytotoxic, single point]	
CN1CCC(NC(=O)c2nc3nc(-c4ccccc4)c(-c4cccc(O)c4)cc3n2C)CC1	inconclusive: 25.1 µM [cytotoxic, partial curve, poor fit]	
O=C(NC1CCC1)c1c(OCC2CC2)cc(=O)n2c1CCOCC2	inconclusive: 2.82 µM [rising, full curve]	
Cc1ccc(C(=O)NCc2nnc3cc(-c4nc(C)no4)ccn23)cc1		inactive: -0.834%
CCOc1ccccc1C(=O)N1CCC(Oc2ccc(C(=O)N(C)C)cn2)CC1		inactive: 9.35%
Cc1cccc(-c2nocc2CCC(=O)NC2CCN(Cc3ccccc3)CC2)c1		inactive: 5.1%
COc1cccc(-c2cc(C3CCN(C(=O)Nc4ccccc4OC)CC3)[nH]n2)c1		inactive: -1.19%
COCC(=O)NC1CCN(Cc2cccc(-c3ccc(F)c(F)c3)c2)CC1	inconclusive: 39.8 µM [cytotoxic, single point]	
Cc1cccc(-c2nc3cnccn3c2NCCC(=O)NCc2ccc(F)c(Cl)c2)c1	inconclusive: 39.8 µM [rising, single point]	
COc1ccc(C2C=C(c3ccccc3)Nc3nc(NC(C)=O)nn32)cc1 (configuration not stated)	inconclusive: 35.5 µM [rising, partial curve]	
C=CCc1cc(OC)c(O)c(C(=O)NCCO)c1	inconclusive: 1 µM [rising, full curve, poor fit]	
O=C(NCCCc1ccccc1)c1cc2n(n1)CC(c1ccc3c(c1)OCO3)OC2 (configuration not stated)		inactive: -1.2%
O=C1CC(c2ccccc2)N(C(=O)C2CC2)CCCN(S(=O)(=O)Cc2ccccc2)CCN1 (configuration not stated)		inactive: -16.2%
Cc1cccc(-n2cnc3cc(C(=O)NCc4ccccc4Cl)ccc32)c1	inconclusive: 39.8 µM [cytotoxic, partial curve, poor fit]	
Cc1ccc(C(C)C)c(OCC(=O)Nc2cc(-c3nc4ccccc4[nH]3)ccc2C)c1	inconclusive: 39.8 µM [cytotoxic, single point]	
Cc1ccc(O)c(NC(=O)CCS(=O)(=O)c2nc(-c3cccs3)cc(C(F)(F)F)n2)c1	inconclusive: 28.2 µM [cytotoxic, single point]	
COc1cccc(CN2CCNc3cc(Nc4ccccc4)ncc3C2)c1	inconclusive: 10 µM [cytotoxic, full curve, poor fit]	
CC1=C(C(=O)OCc2ccc(C)cc2)C(c2ccccc2C(F)(F)F)CC(=O)N1 (configuration not stated)	inconclusive: 2.82 µM [rising, partial curve, poor fit]	

Compound	Potency	activity change, negative = cytotoxicity
C=C1C(=O)O[C@@H]2C3=C(C)CCC[C@]3(C)CC[C@@]12O	inconclusive: 18.9 µM [cytotoxic, partial curve, poor fit]	
Cc1c(O)cccc1C(=O)N[C@@H](CSc1ccccc1)[C@H](O)CN1C[C@H]2CCCC[C@@H]2C[C@@H]1C(=O)NC(C)(C)C	inconclusive: 21.5 µM [cytotoxic, partial curve]	
COC(=O)CNC(=O)C1CCCN1c1nccc(Nc2ccccc2F)n1 (configuration not stated)		inactive: -14.1% [at 12.5 µM]
COc1ccccc1N1CCN(C(=O)Cn2ncc3c2-c2cc(C)ccc2OC3)CC1	inconclusive: 22.4 µM [cytotoxic, partial curve, poor fit]	
Fc1ccccc1-c1noc(-c2nc(-c3ccccc3F)no2)n1		inactive: 0.132%
O=C(NCCc1nc2ccccc2n1Cc1ccc(Cl)cc1Cl)c1ccco1	inconclusive: 28.2 µM [cytotoxic, single point]	
COc1cccc(Nc2ncc3nc(-c4ccc(Cl)cc4)c(=O)n(C[C@H]4CCCO4)c3n2)c1	inconclusive: 14.1 µM [rising, partial curve]	
COc1cccc(-c2ccc(C(=O)N3CCC(NC(=O)Cc4ccc(C(F)(F)F)cc4)CC3)cc2)c1		inactive: -6.23% [at 12.5 µM] and inactive: -2.91% [at 12.5 µM]
O=C(Nc1ccc(OC(F)(F)F)cc1)C1CCN(S(=O)(=O)c2cccs2)CC1	inconclusive: 39.8 µM [cytotoxic, single point]	
COc1ccc2[nH]cc(CCNc3ccnc(-c4ccc(N(C)C)cc4)n3)c2c1	inconclusive: 7.08 µM [cytotoxic, partial curve, poor fit]	
COCc1nc2nccc(-c3ccc4c(c3)OCCCO4)n2n1		inactive: -2.59%
COc1ccccc1N1CCN(C(=O)C(C)[C@@H]2CCc3c(C)cc(OCCN4CCOCC4)c(C)c3C2)CC1 (some centres not stated)		inactive: -27.6%
Cc1cccc(NC(=O)N2C[C@@H](F)C[C@H]2C(=O)N2CCc3ccccc3C2)c1	inconclusive: 31.6 µM [cytotoxic, single point]	
CC(C)c1ccc(C(=O)N2CCc3[nH]nc(C(=O)NCCCc4ccccc4)c3C2)cc1		inactive: 2.28%
COc1ccccc1C(=O)NC[C@@H]1C=C(C)[C@H](Cc2nc3ccncc3[nH]2)C[C@H]1C(C)C	inconclusive: 39.8 µM [cytotoxic, single point]	
C=CCO[C@@H]1CCN2C(=O)c3cc(-c4cc(Cl)ccc4OC)ccc3NC(=O)[C@H]12	inconclusive: 56.2 µM [cytotoxic, single point]	
COc1ccccc1-c1cccc(CN2CCC(N[S+](=O)([O-])c3ccccc3)CC2)c1		inactive: -0.202%
CC(=O)Nc1ccc2nc(SCCOc3cc(C)cc(C)c3)sc2c1	inconclusive: 3.98 µM [rising, partial curve, poor fit]	
COc1ccc(Nc2ncc(-c3ccccc3OC)c3c2OCC3)cc1	inconclusive: 31.6 µM [cytotoxic, partial curve, poor fit]	
COc1ccc(-c2[nH]c(-c3cccc(OC)c3)nc2SCC(=O)NC2CCCC2)cc1	inconclusive: 39.8 µM [cytotoxic, single point]	
O=[N+]([O-])c1cccc(-c2noc([C@@H]3Cc4nc[nH]c4CN3Cc3cccs3)n2)c1	inconclusive: 35.5 µM [cytotoxic, single point]	

Compound	Potency	activity change, negative = cytotoxicity
Cc1ccccc1C(=O)N1CCCC(Nc2ccc(F)cc2)C1 (configuration not stated)	inconclusive: 7.08 µM [cytotoxic, single point]	
CC1(C(=O)NCC2CCCO2)CCCc2cnc(Nc3ccccc3)nc21 (configuration not stated)	inconclusive: 14.1 µM [cytotoxic, partial curve, poor fit]	
CN(C)Cc1ccccc1-c1nc(NCc2ccccc2)c2ccccc2n1	inconclusive: 39.8 µM [cytotoxic, single point]	
Cc1nc2cnc(N3CCOCC3)nc2n(C2CC2)c1=O	inconclusive: 7.08 µM [cytotoxic, single point]	
CS(=O)(=O)c1ccc(CN2C[C@H](O)C[C@H]2c2nc(-c3cnccn3)no2)cc1		inactive: 13.5% [at 87.6 µM]
CCOc1cccc(CN2CCCCC23Cc2ccccc2CNC3=O)c1 (configuration not stated)		inactive: -0.935%
CCOC(=O)C1CCN(C(=O)CC(c2ccc3c(c2)OCO3)c2c[nH]c3ccccc23)CC1 (configuration not stated)		inconclusive: -6.78%
COc1ccc(OC)c(/C=C/C(=O)Nc2ccc(C(=O)OCCC(C)C)cc2)c1	inconclusive: 22.4 µM [rising, single point]	
CNC1CCC(N(Cc2cccc(-c3ccncc3)c2)C(=O)c2sc3ccccc3c2Cl)CC1 (configuration not stated)	inconclusive: 21.2 µM [cytotoxic, single point]	
CCN(CC)CCNC(=O)Nc1ccc2c(c1)N(Cc1ccccc1)C(=O)c1ccccc1S2	inconclusive: 22.4 µM [cytotoxic, partial curve, poor fit]	
COc1ccc(CC(=O)NCCc2csc3nc(-c4ccccc4F)nn23)cc1	inconclusive: 35.5 µM [cytotoxic, single point]	
CN1CCC2(C1)CN(CC1CCOCC1)c1ccc(C(=O)NCC(F)(F)F)cc12 (configuration not stated)		inactive: 4.98% [at 87.6 µM]
COc1ccccc1C(=O)N1CCn2c(nnc2-c2ccncc2)C1		inactive: 4.67%
O=C(C[C@@H]1CCNC[C@@H]1Cc1cc(-c2ccccc2)on1)N1CCOCC1		inactive: 2% [at 87.6 µM]
Cc1ccc(NC(=O)N2CC(c3nnc(-c4ccncc4)o3)C3(CCOCC3)C2)cc1C (configuration not stated)	inconclusive: 1.41 µM [rising, full curve, poor fit]	
O=C1NCCCCCN(C(=O)c2ccccn2)[C@H]2CCC[C@@H]12	inconclusive: 0.631 µM [cytotoxic, single point]	
Cc1cc(=O)n(CC(=O)Nc2ccc(C)c(F)c2)c(N2CCc3ccccc3C2)n1	inconclusive: 31.6 µM [cytotoxic, partial curve, poor fit]	
CC(C)(C)C(=O)NCCc1csc2nc(-c3ccc(F)cc3)nn12	inconclusive: 14.1 µM [cytotoxic, partial curve]	
COc1ccc2nc(NC(=O)c3nc(S(=O)(=O)Cc4cccc(C)c4)ncc3Cl)sc2c1	inconclusive: 25.1 µM [cytotoxic, partial curve, poor fit]	
COc1ccc2c(c1)c1c(c(=O)n(-c3cccc(Cl)c3)c(=O)n1CC(=O)N1CCCC1)n2C	inconclusive: 1.12 µM [cytotoxic, partial curve, poor fit]	
